# Measurements as given in PubChem BioAssay AID686979 (National Center for Advancing Translational Sciences (NCATS), 2013).
# Several values for one entry are separate records, joined by “and”; a condition that tells them apart may be missing. Identical values can stand only once. In all, about 420,000 compounds went through this assay and about 50,000 (12%) were called active. The inconclusive results got no clear call from the source; some entries with a clear call stand among them for comparison. Calls follow the shape of the dose curve; as a rule, active = well fitted inhibition curve with a large enough effect; inconclusive = small, poorly fitted or top-dose-only effect; inactive = flat fitted curve, though single readings scatter. Where the call is inconclusive, the potency comes from a doubtful curve fit.
# Assay: qHTS for Inhibitors of human tyrosyl-DNA phosphodiesterase 1 (TDP1): qHTS in cells in presence of CPT; also: nearly all actives have a fitted effect of over 55% in size
# Settings: chicken DT40 Tdp1-/-;hTDP1 cells + 20 nM CPT, ATP luminescence, 48 h; activity change, negative = growth inhibition: at 46.2 µM (top of the series) unless noted
# Outline: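 Cell growth measured by CellTiter-Glo luminescence after a minimum 48 h, 37 C compound exposure with 20 nM CPT in Tdp1-knockout DT40 cells stably expressing hTDP1, seeded 400/well; qHTS titration format.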
# % is scaled to controls: 0 for no effect and ±100 for the full control effect; potency is read from the fitted curve at half-maximal effect; tags tell the direction and shape of the fitted curve.
SMILES,Potency,"activity change, negative = growth inhibition"
COCCNC(=O)c1cc(S(=O)(=O)N2CCC3(CC2)OCCO3)ccc1F,inactive,–
c1cncc(-c2nccc(NCc3cccs3)n2)c1,"inconclusive: 16.4 µM [inhibitor, single point]",–
O=C(CSc1nc(-c2ccccc2)nc2c1Cc1ccccc1O2)Nc1ccc(C(=O)O)cc1,inactive,–
C(=C\c1nc(N2CCCC2)c2ccccc2n1)/c1ccccc1,"inconclusive: 20.6 µM [inhibitor, single point]",–
CC(C)CCNC(=O)COC(=O)/C=C/c1ccc2ccccc2n1,"inconclusive: 13 µM [inhibitor, single point]",–
Cc1ccc(C2C=C(c3ccc(F)cc3)Nc3nc(CCCO)nn32)cc1 (centres undefined),"inconclusive: 20.6 µM [inhibitor, single point]",–
COc1cc2cc(CN(CCc3ccccc3C)C(=S)NCCCN3CCOCC3)c(=O)[nH]c2cc1OC,"inconclusive: 18.4 µM [inhibitor, single point]",–
CC1CC(C)CN(S(=O)(=O)c2cccc(C(=O)N3CCN(c4ccc(F)cc4)CC3)c2)C1 (centres undefined),"inconclusive: 18.4 µM [inhibitor, single point]",–
O=C(CC1C(=O)NCCN1Cc1ccccc1C(F)(F)F)NC1CCC1 (centres undefined),inactive,–
N#Cc1nc(-c2ccc(F)cc2)oc1N1CCCC1,active: 7.31 µM,–
OC[C@@H]1CN(Cc2ccc(Cl)cc2)C[C@H](n2cnc3c(N4CCN(c5ccccc5)CC4)ncnc32)O1,"inconclusive: 18.4 µM [inhibitor, single point]",–
COc1ccccc1OCC(=O)Nc1ccc(S(=O)(=O)Nc2onc(C)c2C)cc1,inactive,–
C/C(CC(=O)Nc1cccc(Cl)c1C)=N\NC(=O)C(=O)NCC(C)C,"inconclusive: 10.3 µM [inhibitor, partial curve, poor fit]",–
O=S(=O)(NC1=NCCC1)c1cccc(NS(=O)(=O)c2ccc(OC(F)(F)F)cc2)c1,inactive,–
CCOC(=O)N1CCN(C(=O)CNC(=O)c2nn(-c3ccc(OC)c(Cl)c3)c(=O)c3ccccc23)CC1,"inconclusive: 23.1 µM [inhibitor, single point]",–
CCCOc1ccc(NC(=O)CC2C(=O)N(c3ccc(C)cc3)C(=O)N2C2CCCC2)cc1 (centres undefined),"inconclusive: 20.6 µM [inhibitor, single point]",–
O=c1c(-c2cc(F)cc(F)c2)nc2cnc(N3CCNCC3)nc2n1C1CC1,"inconclusive: 29.1 µM [inhibitor, single point]",–
CCSc1ncc(Cl)c(C(=O)N(Cc2ccccc2)Cc2ccco2)n1,"inconclusive: 29.1 µM [inhibitor, single point]",–
CCCCC(=O)OCC(=O)Nc1cccc(S(=O)(=O)NC2=NCCCCC2)c1,inactive,–
O=C(NCc1cccnc1)C(=O)NCC1OCCN1S(=O)(=O)c1ccc(F)cc1 (centres undefined),inactive,–
Nc1nc(N)c(N)c(=O)[nH]1,"inconclusive: 12.6 µM [inhibitor, partial curve, poor fit]",–
O=C(CN1C(=O)CCc2cc(S(=O)(=O)N3CCOCC3)ccc21)NCc1ccccc1Cl,inactive,–

SMILES,Potency,"activity change, negative = growth inhibition"
CCSc1nnc2c(n1)OC(c1sccc1C)N(C(C)=O)c1ccccc1-2 (centres undefined),"inconclusive: 16.4 µM [inhibitor, single point]",–
CC(CC(=O)NC1CCCC1)c1ccccc1 (centres undefined),inactive,–
CCc1ccc2c(CC(=O)NNC(=O)c3ccncc3)coc2c1,inactive,–
CC1=C(C(=O)Nc2cc(Cl)ccc2C)C(c2ccco2)n2ncnc2N1 (centres undefined),–,inconclusive: -31.9% [inhibitor]
COc1ccc(-c2csc(C(C)(O)c3ccc(F)c(F)c3)n2)cc1OC (centres undefined),active: 18.4 µM,–
O=C(N/N=C1\C/C(=N\NC(=O)c2ccncc2)c2ccccc21)c1ccncc1,"inconclusive: 13 µM [inhibitor, partial curve]",–
O=C(CSc1nc2c([nH]c3ccccc32)c(=O)n1-c1ccc(F)cc1)NCc1ccco1,"inconclusive: 25.9 µM [inhibitor, single point] and inconclusive: 29.1 µM [inhibitor, single point]",–
O=C(NCCn1cc(SCC(=O)N2CCOCC2)c2ccccc21)c1c(F)cccc1F,"inconclusive: 18.4 µM [inhibitor, single point]",–
COc1ccc(CCNC/C=C/c2ccccc2)cc1,"inconclusive: 18.4 µM [inhibitor, partial curve, poor fit]",–
C/C(=N\NC(=O)C(O)c1ccccc1)c1ccc(Br)s1 (centres undefined),inactive,–
Cn1ccc2c(N3CCC3)cc3c(c21)C1CCC3O1 (centres undefined),inactive,–
Nc1nonc1-n1nnc(C(=O)N/N=C/c2ccc(OCc3ccccc3)cc2)c1COc1ccc(F)cc1,"inconclusive: 20.6 µM [inhibitor, partial curve]",–
COc1ccc(Cn2c(=O)c3oc4ccccc4c3n(Cc3cccc(F)c3)c2=O)cc1,"inconclusive: 29.1 µM [inhibitor, single point]",–
COc1ccc(N2CCN(C(CNS(=O)(=O)c3cccs3)c3cccnc3)CC2)cc1 (centres undefined),"inconclusive: 18.4 µM [inhibitor, single point]",–
COc1ccc(Cn2nnnc2C(c2ccc(C)cc2)N2CCN(C3CCCC3)CC2)cc1 (centres undefined),active: 16.4 µM,–
CCC(C)(C)C1CCC2(CC1)NC(=O)N(CC(=O)N(C)Cc1ccc3c(c1)OCCO3)C2=O (centres undefined),"inconclusive: 16.4 µM [inhibitor, single point]",–
COc1ccc([C@H]2CC(=O)C=C(c3cc(C=O)ccc3OC)C2)cc1,active: 4.61 µM,–
O=C(NCc1cccc(F)c1)c1ccc2nc(N3CCCCC3)sc2c1,"inconclusive: 14.6 µM [inhibitor, single point]",–
COC(=O)c1ccc(-c2noc(CN(Cc3ccccn3)CC3CCCO3)n2)cc1 (centres undefined),"inconclusive: 14.6 µM [inhibitor, partial curve]",–
O=C(c1ccncc1)N1CCC[C@@]2(CCN(Cc3ccncc3)C2)C1,"inconclusive: 23.1 µM [inhibitor, single point]",–
Cc1nc2ccccc2c(=O)n1CCN1CCOCC1,inactive,–
COc1cc(Cl)c(NC2=CC(=O)C(=O)c3ccccc32)c(OC)c1,active: 11.6 µM,–
